Data on 7 molecules can be found in PMC12722591.

By UniProt entry, the sequences of proteins in these tests, tags left out.
UniProt P48436: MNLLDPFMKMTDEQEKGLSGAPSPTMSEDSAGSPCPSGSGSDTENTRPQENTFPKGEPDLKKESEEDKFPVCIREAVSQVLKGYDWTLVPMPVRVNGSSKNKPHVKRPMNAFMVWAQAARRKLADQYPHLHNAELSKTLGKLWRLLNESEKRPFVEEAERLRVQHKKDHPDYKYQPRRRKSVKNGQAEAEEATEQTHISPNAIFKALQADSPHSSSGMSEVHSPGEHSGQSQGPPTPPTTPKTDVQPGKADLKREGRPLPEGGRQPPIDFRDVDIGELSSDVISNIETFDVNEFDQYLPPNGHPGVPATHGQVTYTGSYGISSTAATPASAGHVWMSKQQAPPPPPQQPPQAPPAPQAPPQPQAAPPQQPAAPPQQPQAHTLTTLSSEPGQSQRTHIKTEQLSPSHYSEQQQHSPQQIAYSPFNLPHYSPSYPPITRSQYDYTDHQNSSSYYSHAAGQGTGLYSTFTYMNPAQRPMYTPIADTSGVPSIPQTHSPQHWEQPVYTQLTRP
UniProt Q969H0: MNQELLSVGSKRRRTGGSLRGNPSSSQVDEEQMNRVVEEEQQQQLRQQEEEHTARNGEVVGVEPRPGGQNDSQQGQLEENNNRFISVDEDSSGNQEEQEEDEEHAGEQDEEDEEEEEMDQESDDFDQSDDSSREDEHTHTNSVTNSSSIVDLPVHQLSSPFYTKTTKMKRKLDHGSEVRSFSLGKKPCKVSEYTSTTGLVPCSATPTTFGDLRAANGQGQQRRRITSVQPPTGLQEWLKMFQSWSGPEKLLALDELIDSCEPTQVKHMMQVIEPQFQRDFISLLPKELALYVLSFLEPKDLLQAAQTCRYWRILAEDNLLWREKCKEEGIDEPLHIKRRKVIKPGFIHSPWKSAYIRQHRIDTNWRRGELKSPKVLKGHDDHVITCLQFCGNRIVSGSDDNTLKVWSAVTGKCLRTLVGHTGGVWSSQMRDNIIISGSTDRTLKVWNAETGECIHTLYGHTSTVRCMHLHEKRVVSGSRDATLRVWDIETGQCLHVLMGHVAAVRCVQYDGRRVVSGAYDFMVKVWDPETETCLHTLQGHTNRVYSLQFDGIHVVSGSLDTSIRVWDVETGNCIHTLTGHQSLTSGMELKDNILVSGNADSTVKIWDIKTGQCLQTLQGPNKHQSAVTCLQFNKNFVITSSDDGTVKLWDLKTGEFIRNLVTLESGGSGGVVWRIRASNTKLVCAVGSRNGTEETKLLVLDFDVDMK
UniProt Q14145: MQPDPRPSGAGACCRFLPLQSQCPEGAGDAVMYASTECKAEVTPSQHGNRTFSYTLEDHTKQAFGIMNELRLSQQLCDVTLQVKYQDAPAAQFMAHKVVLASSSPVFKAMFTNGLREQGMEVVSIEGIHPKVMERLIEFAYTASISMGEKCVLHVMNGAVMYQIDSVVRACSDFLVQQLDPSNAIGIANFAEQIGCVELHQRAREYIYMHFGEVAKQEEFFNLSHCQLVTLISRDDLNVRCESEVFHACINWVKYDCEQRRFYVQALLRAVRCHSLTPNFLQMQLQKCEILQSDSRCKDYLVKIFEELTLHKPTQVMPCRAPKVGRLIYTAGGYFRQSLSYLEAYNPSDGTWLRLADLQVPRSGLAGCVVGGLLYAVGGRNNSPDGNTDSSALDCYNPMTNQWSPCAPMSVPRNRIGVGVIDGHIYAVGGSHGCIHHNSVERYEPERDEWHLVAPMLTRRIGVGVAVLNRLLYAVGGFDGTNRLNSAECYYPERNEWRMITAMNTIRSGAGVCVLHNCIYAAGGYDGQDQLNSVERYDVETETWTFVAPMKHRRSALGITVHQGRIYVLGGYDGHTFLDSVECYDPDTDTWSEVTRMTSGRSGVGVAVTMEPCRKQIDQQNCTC
UniProt Q99873: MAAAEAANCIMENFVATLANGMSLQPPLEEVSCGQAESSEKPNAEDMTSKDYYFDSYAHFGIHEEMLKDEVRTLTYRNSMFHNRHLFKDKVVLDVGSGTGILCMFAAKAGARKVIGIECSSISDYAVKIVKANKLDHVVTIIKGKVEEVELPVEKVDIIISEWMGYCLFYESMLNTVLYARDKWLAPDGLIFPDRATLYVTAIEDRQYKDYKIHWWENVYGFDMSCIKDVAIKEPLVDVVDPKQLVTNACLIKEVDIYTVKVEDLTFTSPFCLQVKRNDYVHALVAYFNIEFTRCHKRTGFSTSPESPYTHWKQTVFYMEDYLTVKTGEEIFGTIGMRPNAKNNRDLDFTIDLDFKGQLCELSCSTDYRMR
UniProt O14744: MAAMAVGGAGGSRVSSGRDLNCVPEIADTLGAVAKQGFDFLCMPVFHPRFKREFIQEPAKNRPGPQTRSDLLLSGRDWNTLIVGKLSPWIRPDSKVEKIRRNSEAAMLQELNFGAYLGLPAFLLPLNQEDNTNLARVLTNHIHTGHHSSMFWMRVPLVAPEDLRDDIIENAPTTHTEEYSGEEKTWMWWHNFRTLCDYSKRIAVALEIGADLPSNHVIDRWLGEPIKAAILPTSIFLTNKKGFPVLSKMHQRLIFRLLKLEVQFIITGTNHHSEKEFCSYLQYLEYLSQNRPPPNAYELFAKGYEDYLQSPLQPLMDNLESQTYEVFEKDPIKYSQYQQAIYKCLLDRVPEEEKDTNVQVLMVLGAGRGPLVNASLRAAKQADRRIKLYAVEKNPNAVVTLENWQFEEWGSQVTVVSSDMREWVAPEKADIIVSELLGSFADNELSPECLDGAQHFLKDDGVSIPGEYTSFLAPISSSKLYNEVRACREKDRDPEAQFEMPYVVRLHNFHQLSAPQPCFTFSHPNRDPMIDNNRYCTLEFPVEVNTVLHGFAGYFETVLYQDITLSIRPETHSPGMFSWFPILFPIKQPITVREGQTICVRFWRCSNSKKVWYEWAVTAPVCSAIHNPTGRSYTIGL
UniProt Q96LA8: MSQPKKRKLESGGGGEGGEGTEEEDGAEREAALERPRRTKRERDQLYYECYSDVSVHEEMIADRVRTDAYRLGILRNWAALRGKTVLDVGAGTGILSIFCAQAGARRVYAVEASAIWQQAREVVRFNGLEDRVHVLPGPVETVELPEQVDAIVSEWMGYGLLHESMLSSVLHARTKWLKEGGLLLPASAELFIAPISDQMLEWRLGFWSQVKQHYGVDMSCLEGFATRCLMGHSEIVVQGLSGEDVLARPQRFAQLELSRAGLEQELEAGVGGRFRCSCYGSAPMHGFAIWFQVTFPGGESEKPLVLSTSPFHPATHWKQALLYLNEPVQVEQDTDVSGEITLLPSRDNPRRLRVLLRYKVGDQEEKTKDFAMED

Results are given in words; binding and its absence hold for the method and conditions named. Binding seen in cells or lysates may run through a third protein. Some entries that bind do so weakly or less than the wild type. For some of these results: Sequences can lack the tags named with a protein.

Assay [1] deals with Flag-tagged SOX9 (SRY-box transcription factor 9) (UniProt P48436). The assay can be described thus: co-IP; HEK293T co-transfected with Flag-SOX9 and HA-KEAP1 or HA-FBXW7, with or without His-PRMT7; harvested after 36 h, IP with the indicated antibodies, immunoblot.
The target is the same in assay [2]. The assay can be described thus: co-IP; HEK293T cells co-transfected with tagged PRMT and Flag-SOX9 constructs (36 h); lysates in IP Lysis Buffer, antibody overnight at 4 °C, Protein A/G beads 6 h, immunoblot.
The target of assay [3] is T1, His-tagged PRMT7 (protein arginine methyltransferase 7) (UniProt Q9NVM4).
T1 sequence: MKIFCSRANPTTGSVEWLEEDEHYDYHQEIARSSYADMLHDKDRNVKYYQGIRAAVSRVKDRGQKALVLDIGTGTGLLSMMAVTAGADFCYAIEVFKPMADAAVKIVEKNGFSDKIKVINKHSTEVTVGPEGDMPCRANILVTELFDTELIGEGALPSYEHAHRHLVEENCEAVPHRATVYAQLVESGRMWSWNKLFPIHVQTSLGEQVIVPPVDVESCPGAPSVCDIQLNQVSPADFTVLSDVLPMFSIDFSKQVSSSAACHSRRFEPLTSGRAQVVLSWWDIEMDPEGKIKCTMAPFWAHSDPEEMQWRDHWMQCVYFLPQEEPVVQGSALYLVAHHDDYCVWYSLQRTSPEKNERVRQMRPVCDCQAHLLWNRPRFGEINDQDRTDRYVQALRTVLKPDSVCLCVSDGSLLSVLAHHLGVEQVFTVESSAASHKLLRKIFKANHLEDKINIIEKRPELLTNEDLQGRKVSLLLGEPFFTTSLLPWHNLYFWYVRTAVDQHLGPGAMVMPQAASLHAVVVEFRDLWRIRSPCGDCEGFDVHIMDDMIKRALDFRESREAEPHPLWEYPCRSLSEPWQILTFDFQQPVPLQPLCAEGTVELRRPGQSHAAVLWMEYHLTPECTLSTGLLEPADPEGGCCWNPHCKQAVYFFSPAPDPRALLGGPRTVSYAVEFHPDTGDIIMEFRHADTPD
Kind of assay: co-IP; semi-endogenous; HEK293T transfected with His-PRMT7 or empty vector, lysate immunoprecipitated with anti-His antibody, immunoblot with anti-SOX9. (In general: Immunoblotting shows a protein as a band on a membrane.)

The target of assay [4] is Flag-tagged SOX9 (SRY-box transcription factor 9) (UniProt P48436). Kind of assay: co-IP; HEK293T cells co-transfected with tagged PRMT and Flag-SOX9 constructs (36 h); lysates in IP Lysis Buffer, antibody overnight at 4 °C, Protein A/G beads 6 h, immunoblot. This is another data set of the same source.

Regarding “HA-FBXW7 (F-Box and WD repeat domain containing 7) (from UniProt Q969H0 1-707)”, the binding entry in assay [1] is “binds”. Still for that read-out and setting: then “HA-KEAP1 (kelch like ECH associated protein 1) (from UniProt Q14145 1-624)”, with “binds”.

Turning to “His-tagged PRMT1 (from UniProt Q99873 1-371) (enzyme)”, in assay [2], the binding result was “no binding”. Same read-out and setting: then “His-tagged PRMT5 (from UniProt O14744 1-637) (enzyme)”, with “no binding”; and “His-tagged PRMT6 (from UniProt Q96LA8 1-375) (enzyme)”, with “no binding”. Turning to “SOX9, endogenous in HEK293T cells (from UniProt P48436 1-509)”, in assay [3], the binding result is listed as “binds”.

B1: T7-PRMT7 (1–345 aa) (domain or fragment, UniProt Q9NVM4 1-345)
chain: MKIFCSRANPTTGSVEWLEEDEHYDYHQEIARSSYADMLHDKDRNVKYYQGIRAAVSRVKDRGQKALVLDIGTGTGLLSMMAVTAGADFCYAIEVFKPMADAAVKIVEKNGFSDKIKVINKHSTEVTVGPEGDMPCRANILVTELFDTELIGEGALPSYEHAHRHLVEENCEAVPHRATVYAQLVESGRMWSWNKLFPIHVQTSLGEQVIVPPVDVESCPGAPSVCDIQLNQVSPADFTVLSDVLPMFSIDFSKQVSSSAACHSRRFEPLTSGRAQVVLSWWDIEMDPEGKIKCTMAPFWAHSDPEEMQWRDHWMQCVYFLPQEEPVVQGSALYLVAHHDDYCVW
In the case of B1, the binding entry in assay [4] was “binds”.
